# According to the supplement of paper PMC8728848:
# The other results are listed elsewhere or left out.
# B1: rAAL-2 (Agrocybe aegerita) (protein)
# chain: MTSNVITQDLPIPVASRGFADIVGFGLDGVVIGRNAVNLQPFLAVKNFAQNAGGWLTTKHVRLIADTTGTGKGDIVGFGNAGVYVSVNNGKNTFADPPKMVIANFGYDAGGWRVEKHLRYLADIRKIGRADIIGFGEKGVLVSRNNGGLNFGPATLVLKDFGYDAGGWRLDRHLRFLADVTGNGHLDIVGFGDKHVFISRNNGDGTFAPAKSVIDNFCIDAGGWKIGDHPRFVADLTGDGTADIIGCGKAGCWVALNNGGGVFGQVKLVINDFGTDKGWQAAKHPRFIADLTGNGRGDVVGFGNAGVYVALNNGDGTFQSAKLVLKDFGVQQGWTVSKHRRFVVDLTGDGCADIIGFGEKETLVSYNDGKGNFGPVKALTNDFSFSGGKWAPETTVCWMANLDSSRH
# Assays:
# Test in all cases: glycan array binding signal (z-score within array); higher = stronger binding
# Conditions in all cases: glycan notation: IUPAC condensed, linker removed
# [1] = target: Fuc(a1-2)[Gal(a1-3)]Gal(b1-3)GlcNAc(b1-6)GalNAc
# Procedure, shortened: (§1)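 Glycan array data were curated from 3228 arrays in the Consortium for Functional Glycomics database and kept only where the protein sequence was available. Glycan names were converted to IUPAC-condensed notation, and columns mapping to the same glycan were averaged. The binding signal is a within-array Z-score, averaged across arrays of the same protein sequence at different concentrations or buffers and across linkers. Negative Z-scores can be read as non-binding.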
# [2] = target: Fuc(a1-2)[Gal(a1-3)]Gal(b1-4)Glc
# Procedure, shortened: as §1
# [3] = target: Fuc(a1-2)[Gal(a1-3)]Gal(b1-4)GlcNAc
# Procedure, shortened: as §1
# [4] = target: Fuc(a1-2)[Gal(a1-3)]Gal(b1-4)GlcNAc(b1-2)Man
# Procedure, shortened: as §1
# [5] = target: Fuc(a1-2)[Gal(a1-3)]Gal(b1-4)GlcNAc(b1-2)Man(a1-3)[Fuc(a1-2)[Gal(a1-3)]Gal(b1-4)GlcNAc(b1-2)Man(a1-6)]Man(b1-4)GlcNAc(b1-4)GlcNAc
# Procedure, shortened: as §1
# [6] = target: Fuc(a1-2)[Gal(a1-3)]Gal(b1-4)GlcNAc(b1-2)Man(a1-3)[Fuc(a1-2)[Gal(a1-3)]Gal(b1-4)GlcNAc(b1-2)Man(a1-6)]Man(b1-4)GlcNAc(b1-4)[Fuc(a1-6)]GlcNAc
# Procedure, shortened: as §1
# [7] = target: Fuc(a1-2)[Gal(a1-3)]Gal(b1-4)GlcNAc(b1-3)GalNAc
# Procedure, shortened: as §1
# [8] = target: Fuc(a1-2)[Gal(a1-3)]Gal(b1-4)GlcNAc(b1-3)[Fuc(a1-2)[Gal(a1-3)]Gal(b1-4)GlcNAc(b1-6)]GalNAc
# Procedure, shortened: as §1
# [9] = target: Fuc(a1-2)[Gal(a1-3)]Gal(b1-4)GlcNAc(b1-6)GalNAc
# Procedure, shortened: as §1
# [10] = target: Fuc(a1-2)[Gal(a1-3)]Gal(b1-4)[Fuc(a1-3)]Glc
# Procedure, shortened: as §1
# [11] = target: Fuc(a1-2)[Gal(a1-3)]Gal(b1-4)[Fuc(a1-3)]GlcNAc
# Procedure, shortened: as §1
# [12] = target: Fuc(a1-2)[Gal(a1-3)]Gal(b1-4)[Fuc(a1-3)]GlcNAc(b1-3)GalNAc
# Procedure, shortened: as §1
# [13] = target: Fuc(a1-2)[Gal(a1-4)]Gal(b1-4)GlcNAc
# Procedure, shortened: as §1
# [14] = target: Fuc(a1-2)[GalNAc(a1-3)]Gal
# Procedure, shortened: as §1
# [15] = target: Fuc(a1-2)[GalNAc(a1-3)]Gal(b1-3)GalNAc(a1-3)[Fuc(a1-2)]Gal(b1-4)GlcNAc
# Procedure, shortened: as §1
# [16] = target: Fuc(a1-2)[GalNAc(a1-3)]Gal(b1-3)GalNAc(b1-3)Gal(a1-4)Gal(b1-4)Glc
# Procedure, shortened: as §1
# [17] = target: Fuc(a1-2)[GalNAc(a1-3)]Gal(b1-3)GlcNAc
# Procedure, shortened: as §1
# [18] = target: Fuc(a1-2)[GalNAc(a1-3)]Gal(b1-3)GlcNAc(b1-2)Man(a1-3)[Fuc(a1-2)[GalNAc(a1-3)]Gal(b1-3)GlcNAc(b1-2)Man(a1-6)]Man(b1-4)GlcNAc(b1-4)GlcNAc
# Procedure, shortened: as §1
# [19] = target: Fuc(a1-2)[GalNAc(a1-3)]Gal(b1-3)GlcNAc(b1-2)Man(a1-3)[Fuc(a1-2)[GalNAc(a1-3)]Gal(b1-3)GlcNAc(b1-2)Man(a1-6)]Man(b1-4)GlcNAc(b1-4)[Fuc(a1-6)]GlcNAc
# Procedure, shortened: as §1
# [20] = target: Fuc(a1-2)[GalNAc(a1-3)]Gal(b1-3)GlcNAc(b1-3)GalNAc
# Procedure, shortened: as §1
# [21] = target: Fuc(a1-2)[GalNAc(a1-3)]Gal(b1-3)GlcNAc(b1-6)GalNAc
# Procedure, shortened: as §1
# [22] = target: Fuc(a1-2)[GalNAc(a1-3)]Gal(b1-4)Glc
# Procedure, shortened: as §1
# [23] = target: Fuc(a1-2)[GalNAc(a1-3)]Gal(b1-4)GlcNAc
# Procedure, shortened: as §1
# [24] = target: Fuc(a1-2)[GalNAc(a1-3)]Gal(b1-4)GlcNAc(b1-2)Man
# Procedure, shortened: as §1
# [25] = target: Fuc(a1-2)[GalNAc(a1-3)]Gal(b1-4)GlcNAc(b1-2)Man(a1-3)[Fuc(a1-2)[GalNAc(a1-3)]Gal(b1-4)GlcNAc(b1-2)Man(a1-6)]Man(b1-4)GlcNAc(b1-4)GlcNAc
# Procedure, shortened: as §1
# [26] = target: Fuc(a1-2)[GalNAc(a1-3)]Gal(b1-4)GlcNAc(b1-2)Man(a1-3)[Fuc(a1-2)[GalNAc(a1-3)]Gal(b1-4)GlcNAc(b1-2)Man(a1-6)]Man(b1-4)GlcNAc(b1-4)[Fuc(a1-6)]GlcNAc
# Procedure, shortened: as §1
# [27] = target: Fuc(a1-2)[GalNAc(a1-3)]Gal(b1-4)GlcNAc(b1-3)Gal(b1-4)GlcNAc
# Procedure, shortened: as §1
# [28] = target: Fuc(a1-2)[GalNAc(a1-3)]Gal(b1-4)GlcNAc(b1-3)Gal(b1-4)GlcNAc(b1-3)Gal(b1-4)GlcNAc
# Procedure, shortened: as §1
# [29] = target: Fuc(a1-2)[GalNAc(a1-3)]Gal(b1-4)GlcNAc(b1-3)GalNAc
# Procedure, shortened: as §1
# [30] = target: Fuc(a1-2)[GalNAc(a1-3)]Gal(b1-4)GlcNAc(b1-3)[Fuc(a1-2)[GalNAc(a1-3)]Gal(b1-4)GlcNAc(b1-6)]GalNAc
# Procedure, shortened: as §1
# [31] = target: Fuc(a1-2)[GalNAc(a1-3)]Gal(b1-4)GlcNAc(b1-6)GalNAc
# Procedure, shortened: as §1
# [32] = target: Fuc(a1-2)[GalNAc(a1-3)]Gal(b1-4)[Fuc(a1-3)]GlcNAc
# Procedure, shortened: as §1
# [33] = target: Fuc(a1-2)[GalNAc(a1-3)]Gal(b1-4)[Fuc(a1-3)]GlcNAc(b1-3)GalNAc
# Procedure, shortened: as §1
# [34] = target: Fuc(a1-2)[GalNAc(a1-4)]Gal(b1-4)GlcNAc
# Procedure, shortened: as §1
# [35] = target: Fuc(a1-2)[GalNAc(b1-3)]Gal
# Procedure, shortened: as §1
# Fuc(a1-3)GlcNAc = target: Fuc(a1-3)GlcNAc
# Procedure, shortened: as §1
# [36] = target: Fuc(a1-3)[Gal(b1-4)]Glc6S
# Procedure, shortened: as §1
binder,measurement,setting,value
B1,glycan array binding signal (z-score),[1],0.161
same,glycan array binding signal (z-score),[2],-0.108
same,glycan array binding signal (z-score),[3],-0.336
same,glycan array binding signal (z-score),[4],-0.497
same,glycan array binding signal (z-score),[5],-0.293
same,glycan array binding signal (z-score),[6],0.035
same,glycan array binding signal (z-score),[7],-0.236
same,glycan array binding signal (z-score),[8],-0.235
same,glycan array binding signal (z-score),[9],-0.195
same,glycan array binding signal (z-score),[10],-0.258
same,glycan array binding signal (z-score),[11],-0.196
same,glycan array binding signal (z-score),[12],-0.123
same,glycan array binding signal (z-score),[13],0.114
same,glycan array binding signal (z-score),[14],-0.342
same,glycan array binding signal (z-score),[15],-0.044
same,glycan array binding signal (z-score),[16],-0.402
same,glycan array binding signal (z-score),[17],0.139
same,glycan array binding signal (z-score),[18],0.114
same,glycan array binding signal (z-score),[19],0.174
same,glycan array binding signal (z-score),[20],0.117
same,glycan array binding signal (z-score),[21],-0.291
same,glycan array binding signal (z-score),[22],-0.025
same,glycan array binding signal (z-score),[23],0.075
same,glycan array binding signal (z-score),[24],-0.523
same,glycan array binding signal (z-score),[25],0.258
same,glycan array binding signal (z-score),[26],0.235
same,glycan array binding signal (z-score),[27],0.096
same,glycan array binding signal (z-score),[28],0.353
same,glycan array binding signal (z-score),[29],-0.149
same,glycan array binding signal (z-score),[30],-0.309
same,glycan array binding signal (z-score),[31],0.115
same,glycan array binding signal (z-score),[32],-0.247
same,glycan array binding signal (z-score),[33],-0.253
same,glycan array binding signal (z-score),[34],-0.368
same,glycan array binding signal (z-score),[35],-0.291
same,glycan array binding signal (z-score),Fuc(a1-3)GlcNAc,-0.182
same,glycan array binding signal (z-score),[36],-0.135
